# Reference: patent publication US20240218065A1 (SHENGHE CHINA BIOPHARMACEUTICAL, published 2024)
# Where two headings read alike, the source gives them in different places.
# B1: PD1 and IL-15 cytokine fusion protein (other)
# chain 1: QVQLVQSGVEVKKPGASVKVSCKASGYTFTNYYMYWVRQAPGQGLEWMGGINPSNGGTNFNEKFKNRVTLTTDSSTTTAYMELKSLQFDDTAVYYCARRDYRFDMGFDYWGQGTTVTVSSASTKGPSVFPLAPCSRSTSESTAALGCLVKDYFPEPVTVSWNSGALTSGVHTFPAVLQSSGLYSLSSVVTVPSSSLGTKTYTCNVDHKPSNTKVDKRVGGGGSGGGGS[about 120 residues not written out]GGGGSGGGGS[human IgG4 Fc with S228P T366W (EU numbers) not written out]
# chain 2: QVQLVQSGVEVKKPGASVKVSCKASGYTFTNYYMYWVRQAPGQGLEWMGGINPSNGGTNFNEKFKNRVTLTTDSSTTTAYMELKSLQFDDTAVYYCARRDYRFDMGFDYWGQGTTVTVSSASTKGPSVFPLAPCSRSTSESTAALGCLVKDYFPEPVTVSWNSGALTSGVHTFPAVLQSSGLYSLSSVVTVPSSSLGTKTYTCNVDHKPSNTKVDKRVGGGGSGGGGSITCPPPMSVEHADIWVKSYSLYSRERYICNSGFKRKAGTSSLTECVLNKATNVAHWTTPSLKCIRGGGGS[human IgG4 Fc with S228P Y407A (EU numbers) not written out]
# chain 3: EIVLTQSPATLSLSPGERATLSCRASKGVSTSGYSYLHWYQQKPGQAPRLLIYLASYLESGVPARFSGSGSGTDFTLTISSLEPEDFAVYYCQHSRDLPLTFGGGTKVEIKRTVAAPSVFIFPPSDEQLKSGTASVVCLLNNFYPREAKVQWKVDNALQSGNSQESVTEQDSKDSTYSLSSTLTLSKADYEKHKVYACEVTHQGLSSPVTKSFNRGEC
# notes: also called the control
# Columns and labels:
# [1] = target: T1, IL-2Rβ (Acro, cat: CD2-H5221) (UniProt P14784 27-239); test: ELISA: IL-2Rβ coated at 3 µg/mL, antibody titrated 3-fold from 20 µg/mL, HRP goat anti-human IgG-Fc, OD450-OD570
# T1 construct: Bought protein coated on the ELISA plate; also called IL-2Rβ receptor; IL-2Rβ protein
# T1 sequence (looked up): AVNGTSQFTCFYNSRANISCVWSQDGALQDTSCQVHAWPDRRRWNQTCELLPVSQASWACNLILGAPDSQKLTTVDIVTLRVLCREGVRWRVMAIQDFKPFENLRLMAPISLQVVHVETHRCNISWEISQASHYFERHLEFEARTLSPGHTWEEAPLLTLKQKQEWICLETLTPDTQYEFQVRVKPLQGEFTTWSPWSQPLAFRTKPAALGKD
# Experimental: (§1) IL-2Rβ (Acro, cat: CD2-H5221) receptor was diluted to 3 μg/mL with PBS buffer at pH 7.4, added into the 96-well ELISA plate at 100 μL per well, coated overnight at 4° C., and blocked with 1% BSA blocking solution for 1 hour. The plate was washed 3 times with PBST, and the constructed expressing antibody was diluted to 20 μg/mL with 0.5% BSA sample diluent as the starting concentration, and then diluted by 3-fold gradient (11 gradients in total). A negative control (blank well and IgG1 isotype control) and a positive control were set, and the positive control was a PD1 and IL-15 cytokine fusion protein (sequence consists of SEQ ID No. 25, SEQ ID No. 26, and SEQ ID No. 27), and incubated at 37° C. for 1 h at 100 μL per well. […] The absorbance value of each well in the 96-well plate was determined by selecting the wavelength of 450 nm and the reference wavelength of 570 nm on a multifunctional enzyme marker, and the absorbance value (OD)=OD₄₅₀ₙₘ−OD₅₇₀ₙₘ. The logarithm of the concentration of the constructed antibody was taken as the abscissa, and the measured absorbance value of each well was taken as the ordinate, and the Sigmoidaldose-response (Variable Slope) method (GraphPad Prism software, GraphPad Software, San Diego, California) was selected for nonlinear regression to obtain the binding curve of the target antibody to the IL-2Rβ receptor.
# [2] = target: T1, IL-2Rβ (Acro, cat: CD2-H5221); test: as above; remark: listed apart in the source
# Experimental: as §1
binder,measurement,setting,value
B1,EC50 (read off the curve),[1],~0.7 µg/mL
same,EC50 (read off the curve),[2],~0.7 µg/mL
